Target: Collagenase 3 (Homo sapiens, UniProt P45452)
Assay: ASSAY_NAME: ChEMBL_634107 (CHEMBL1118891) DESCRIPTION: Inhibition of MMP13

Row | SMILES | IC50 [nM]
1 | O=C(NO)C1(S(=O)(=O)c2ccc(N3CCC(c4ccccc4O)CC3)cc2)CCOCC1 [N-hydroxy-4-(4-(4-(2-hydroxyphenyl)piperidin-1-yl)phenylsulfonyl)tetrahydro-2H-pyran-4-carboxamide] | 11
2 | O=C(NO)C1(S(=O)(=O)c2ccc(N3CCC(c4cccc5ccccc45)CC3)cc2)CCOCC1 [N-hydroxy-4-(4-(4-(naphthalen-1-yl)piperidin-1-yl)phenylsulfonyl)tetrahydro-2H-pyran-4-carboxamide] | 11
